# Test results reported in PubChem BioAssay AID686979 (National Center for Advancing Translational Sciences (NCATS), 2013).
# The campaign covered roughly 420,000 compounds. About 50,000 (12%) were called active. Inconclusive results, whose numbers are uncertain, are shown with a selection of clear calls. Calls follow the shape of the dose curve; as a rule, active = well fitted inhibition curve with a large enough effect; inconclusive = small, poorly fitted or top-dose-only effect; inactive = flat fitted curve, though single readings scatter. Potencies of inconclusive entries are left out as doubtful fits.
# Test: qHTS for Inhibitors of human tyrosyl-DNA phosphodiesterase 1 (TDP1): qHTS in cells in presence of CPT; also: nearly all actives have a fitted effect of over 55% in size
# Details: chicken DT40 Tdp1-/-;hTDP1 cells + 20 nM CPT, ATP luminescence, 48 h; activity change, negative = growth inhibition: at 46.2 µM (top of the series) unless noted
# In short: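 Chicken DT40 Tdp1-/- cells stably complemented with human TDP1 were seeded at 400 cells/well in medium containing 20 nM camptothecin, exposed to pin-transferred compounds, and grown at 37 °C for at least 48 hr. Viability was read as ATP luminescence.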
# % is scaled to controls: 0 for no effect and ±100 for the full control effect; potency is read from the fitted curve at half-maximal effect; tags tell the direction and shape of the fitted curve.
SMILES,Potency,"activity change, negative = growth inhibition"
COc1ccc(NS(=O)(=O)c2ccc3oc(=O)c4[nH]c(=O)c(=O)n(C)c4c3c2)cc1,"inconclusive [inhibitor, single point]",
O=C(Nc1ccc(OCC(F)(F)C(F)F)c(C(F)(F)F)c1)c1ccc(Cl)cc1,active: 23.1 µM,
COCC(=O)N1CCN(c2cccc(C(F)(F)F)c2)CC1,"inconclusive [inhibitor, single point]",
CN(C)S(=O)(=O)c1ccc(C(=O)NCCN=C2NS(=O)(=O)c3ccccc32)cc1,,inactive: -3.6%
CCOc1ccccc1CNC(=O)CCc1c(C)nn(-c2ccc(N3CCOCC3)nn2)c1C,"inconclusive [inhibitor, single point]",
Cc1cccc(Cn2cnc3c(NS(C)(=O)=O)c(C)c(C)cc32)c1,"inconclusive [inhibitor, partial curve]",
Cc1ccc2c(c1)C(=O)C(=O)N2CCCOc1ccccc1,active: 1.03 µM,
CN1C(=O)c2ccccc2Sc2ccc(NC(=O)NCc3cccc(Cl)c3)cc21,active: 23.1 µM,
CC(=O)N(c1ccccc1)C(C)c1nc(C#N)c(C#N)nc1C (stereo unspecified),"inconclusive [inhibitor, single point]",
CC1Cc2ccccc2N1C(=O)CSc1nnc2n1C(C)(C)Cc1ccccc1-2 (stereo unspecified),active: 20.6 µM,
Cn1c(SCc2nc3ccccc3c(=O)[nH]2)nc2ccccc21,,inactive: 0.719%
CN1CCN(c2nc(Nc3ccc(O)cc3)nc3ccccc23)CC1,"inconclusive [inhibitor, single point]",
CC(=O)Nc1ccc(S(=O)(=O)NC(C)c2ccncc2)cc1 (stereo unspecified),"inconclusive [inhibitor, single point]",
Cc1ccc(S(=O)(=O)NC(CC(C)C)C(=O)N2CCC(C)CC2)cc1 (stereo unspecified),"inconclusive [inhibitor, single point]",
CC(C)CC(=O)Nc1nnc(S(=O)(=O)Nc2ccccc2)s1,,inactive: 1.04%
Cc1cccc(-c2nnc(SCC(=O)NCc3ccc4c(c3)OCO4)n2C)c1,,inactive: -14.2%
Cc1nc(C)c(-c2ccc(SCc3ccc([N+](=O)[O-])cc3)nn2)s1,"inconclusive [inhibitor, single point]",
Cc1ccccc1NC(=S)NCCc1ccc(S(N)(=O)=O)cc1,,inactive: 9.15%
Cc1ccccc1C(=O)NCCc1csc(-c2ccc(C(F)(F)F)cc2)n1,"inconclusive [inhibitor, single point]",
CC1=C(/C=C/C(C)=N\NC(=O)c2ccncc2)C(C)(C)CCC1,"inconclusive [inhibitor, single point]",
Cc1ccc(NC(=O)CCNS(=O)(=O)c2cccc3nonc23)cc1Cl,"inconclusive [inhibitor, single point]",
Cc1cn2c(=O)cc(COC(=O)c3cccc(NC(=O)COc4ccccc4C)c3)nc2s1,"inconclusive [inhibitor, single point]",
COc1cc(/C=C/C(=O)N2CCN(C(=O)/C=C/c3cc(OC)c(OC)c(OC)c3)CC2)cc(OC)c1OC,,inactive: -4.1%

SMILES,Potency,"activity change, negative = growth inhibition"
Cc1cccc(C)c1NC(=O)CN1CCN(CC(=O)c2cc(C)n(C3CC3)c2C)CC1,"inconclusive [inhibitor, single point]",
COC(=O)[C@@H](NS(=O)(=O)c1ccc(F)cc1Br)C(C)C,,inactive: -13.3%
CC(=O)ON=C1C=CC(=C(C#N)c2ccccc2)C=C1,active: 2.31 µM,
C=C(C)COc1ccc(-c2nc(N)nc(C)c2Oc2ccccc2OC)c(O)c1,"inconclusive [inhibitor, single point]",
CN(C)c1ccc(-c2ccnc3c2CC(C)(C(=O)Nc2ccc(F)c(Cl)c2)O3)cc1 (stereo unspecified),"inconclusive [inhibitor, single point]",
Cc1ccc(CNC(=O)CSc2nc3c(sc4ccccc43)c(=O)n2CCCN2CCCC2)cc1,active: 23.1 µM,
Cc1ccc(CNC(=O)CSc2c3c(nc4cc(Cl)ccc24)CCCC3)cc1,"inconclusive [inhibitor, partial curve]",
O=C(O)CCSC1CC(=O)N(c2ccccc2)C1=O (stereo unspecified),,inactive: -6.54%
CCCCC1(CC)COC(c2ccccc2)OC1 (stereo unspecified),,inactive: 7.27%
O=C(N/N=C/c1c[nH]c2ccc(Br)cc12)c1ccn(Cc2ccc(Cl)cc2Cl)n1,"inconclusive [inhibitor, single point]",
Cc1c(-c2nc(-c3ccccc3F)no2)nnn1-c1cc(F)ccc1F,,inactive: -5.72%
CCOC(=O)C1=C(COC(=O)Cc2ccccc2)NC(=O)NC1C (stereo unspecified),,inactive: -5.06%
CC(C)Cn1cnc2c(c(-c3ccccc3)c(-c3ccccc3)n2Cc2ccco2)c1=N,active: 20.6 µM,
Cc1nn(C)cc1CN(C)C(=O)CC12CC3CC(CC(C3)C1)C2,"inconclusive [inhibitor, partial curve, poor fit]",
CCN1CCN(c2ccc(S(=O)(=O)N3CCCCC3)cc2NC(=O)COc2ccc(Cl)c(C)c2)CC1,active: 16.4 µM,
Cc1ccc(C)c(NC(=O)C(C)N2C(=O)c3ccccc3C2=O)c1 (stereo unspecified),,inactive: 6.98%
CCn1c(C(=O)N2CCC(C(=O)NCCCSC3CCCCC3)CC2)cc2sccc21,"inconclusive [inhibitor, single point]",
COc1ccc(OC)c(-c2nc(C(=O)NC3CCN(Cc4ccccc4)CC3)cc3c2[nH]c2ccccc23)c1,active: 10.3 µM,
O=C(COc1ncnc2cc([N+](=O)[O-])ccc12)N(CCc1ccccc1)Cc1ccccc1,"inconclusive [inhibitor, single point]",
Cc1nc(CCN2C(=O)c3ccccc3C2=O)n[nH]1,"inconclusive [inhibitor, single point]",
O=C1C(=O)N(CCN2CCOCC2)C(c2ccccn2)/C1=C(/O)c1ccc(F)cc1 (stereo unspecified),"inconclusive [inhibitor, single point]",
COc1cc2c(cc1OC)C(NNC(=O)c1ccc(Br)o1)=NC(C)(C)C2,active: 20.6 µM,
COc1ccc(CNc2nc3ccccc3n2CCN2CCCCC2)cc1,active: 18.4 µM,
